Laboratory results: the supplement of paper PMC4166925
± gives the standard deviation of the averaged measurements. Whole data set: some 33,000 sequences, median “E-score (dimensionless, -0.5 to 0.5)” near -0.046, cut for the highest 2% near 0.36. This is one part of the list.

The sequences below were run on T1, SpTbr T-box DNA-binding domain (GST fusion) (assay: PBM E-score of 8-mer (E-score (dimensionless, -0.5 to 0.5)); Tbr is Tbrain of the sea star Patiria miniata (Pm) or the sea urchin Strongylocentrotus purpuratus (Sp); higher = stronger binding preference; most listed sequences are background and not binding sites). Conditions: the construct has about 5 more residues each side.
T1 sequence: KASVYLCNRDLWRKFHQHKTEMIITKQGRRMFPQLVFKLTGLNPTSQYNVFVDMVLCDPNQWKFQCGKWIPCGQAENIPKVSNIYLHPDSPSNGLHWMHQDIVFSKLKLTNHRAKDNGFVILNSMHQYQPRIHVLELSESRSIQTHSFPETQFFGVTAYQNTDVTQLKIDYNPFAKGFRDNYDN
Method in brief: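 Using the Universal PBM Analysis Suite, every ungapped 8-mer received an enrichment E-score averaged over duplicate arrays. Probe intensities came from double-stranded Universal Agilent oligonucleotide arrays incubated with 200 nM GST-fused Tbr T-box DNA-binding domain in PBS (pH 7.5). That protein was expressed in BL21 E. coli at 20 °C and purified by glutathione affinity chromatography.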

| Sequence | PBM E-score of 8-mer |
| --- | --- |
| GCAGCATA | -0.0383 ± 0.02 |
| CCACCGCA | -0.033 ± 0.068 |
| TACATTCA | -0.116 ± 0.014 |
| TACAGACA | 0.0916 ± 0.02 |
| GGTTTTAC | -0.168 ± 0.064 |
| CCTTCCGA | -0.115 ± 0.027 |
| TGACGACA | 0.27 ± 0.0041 |
| CCCGCGCA | 0.113 ± 0.026 |
| AACGGTAG | -0.0788 ± 0.046 |
| GCACTGGC | -0.172 ± 0.031 |
| ATGCTTAC | -0.0604 ± 0.05 |
| CTTCGAAG | 0.0724 ± 0.0063 |
| GATCGTGC | 0.111 ± 0.02 |
| GAAAAGCA | -0.0363 ± 0.0088 |
| CACCAGAC | 0.0712 ± 0.097 |
| CCGCCGCC | 0.0492 ± 0.013 |
| GCAAGCAA | 0.00941 ± 0.017 |
| AATTGGAG | -0.0967 ± 0.046 |
| CAAATTTA | -0.0277 ± 0.08 |
| CATGCGAC | 0.0885 ± 0.027 |
| ACTCGTCC | -0.0512 ± 0.025 |
| GAGCACAA | -0.0285 ± 0.11 |

| Sequence | PBM E-score of 8-mer |
| --- | --- |
| ACAGATGT | 0.152 ± 0.018 |
| GCGCGCGA | 0.316 ± 0.041 |
| ACTTGGAG | -0.0124 ± 0.013 |
| AGTCGACT | 0.0789 ± 0.039 |
| ACTATGGC | 0.0458 ± 0.028 |
| AGGTTTGC | -0.0997 ± 0.11 |
| GGTGCGCA | 0.215 ± 0.057 |
| AGTGTGGA | 0.373 ± 0.035 |
| ATTCGACG | -0.0229 ± 0.021 |
| ATACCCAC | -0.173 ± 0.07 |
| TATTCAAA | -0.239 ± 0.095 |
| GACGAAAC | 0.0311 ± 0.096 |
| ACATTCCC | -0.15 ± 0.07 |
| GCTTCACC | -0.0574 ± 0.075 |
| CTCATCAG | -0.214 ± 0.068 |
| AGGACCGA | -0.0284 ± 0.059 |
| CAGCGTGA | 0.308 ± 0.03 |
| AGGATTTA | -0.113 ± 0.038 |
| ATGTTTAG | -0.271 ± 0.095 |
| TCTCCCAA | -0.0209 ± 0.0076 |
| AGTGTCAT | 0.405 ± 0.017 |
| AAGATAAA | -0.086 ± 0.046 |

| Sequence | PBM E-score of 8-mer |
| --- | --- |
| AAGCGGTA | -0.00951 ± 0.091 |
| ACGCGAGG | 0.207 ± 0.0089 |
| CCTCTATC | -0.104 ± 0.0019 |
| ACTCCTAG | -0.0316 ± 0.012 |
| ATGACACC | 0.4599 ± 0.0031 |
| TCGGAACA | -0.07872 ± 0.00021 |
| GGGGCTGA | -0.244 ± 0.05 |
| GAGCGTCC | -0.263 ± 0.034 |
| AATGGACG | -0.11 ± 0.042 |
| AGAGTCGC | 0.16 ± 0.044 |
| GAAACCGC | 0.0468 ± 0.0075 |
| AATGTTGG | -0.0767 ± 0.091 |
| ATTTAACG | 0.027 ± 0.052 |
| AAGGGCCT | -0.224 ± 0.029 |
| CGTAGCCC | -0.302 ± 0.047 |
| ATCGATTA | -0.15 ± 0.068 |
| GCACTACA | 0.00903 ± 0.0074 |
| ACGTATCT | -0.0757 ± 0.021 |
| CCAATGCC | -0.0845 ± 0.027 |
| CACTGGGA | -0.0452 ± 0.0034 |
| TAGTTCCA | -0.0883 ± 0.023 |
| AATATCTG | -0.21 ± 0.0056 |

| Sequence | PBM E-score of 8-mer |
| --- | --- |
| AATGGTGC | 0.198 ± 0.014 |
| AGGGGGGA | -0.419 ± 0.053 |
| ATTCTTCA | 0.0621 ± 0.059 |
| CGGTACAC | -0.0277 ± 0.021 |
| GACTGATA | -0.0508 ± 0.062 |
| AGCTCCGC | -0.254 ± 0.058 |
| ACTAACGC | 0.315 ± 0.015 |
| AACAAGAC | -0.0104 ± 0.018 |
| CTGATGTC | -0.314 ± 0.053 |
| ACTGAACC | 0.00741 ± 0.065 |
| AACGGCGA | -0.0936 ± 0.074 |
| GGGCATCA | 0.00736 ± 0.085 |
| CAAAAAGC | 0.0694 ± 0.065 |
| CGCGCGGC | 0.208 ± 0.04 |
| ATCTTAAC | 0.128 ± 0.0048 |
| ATTGTCCA | 0.0125 ± 0.076 |
| AGGTTTAG | -0.0798 ± 0.046 |
| AACAATTC | -0.0144 ± 0.015 |
| TATCCCGA | -0.0114 ± 0.067 |
| CAGGTCTC | -0.0502 ± 0.00086 |
| CTATTAAA | 0.0284 ± 0.031 |
| CCTGGCAC | 0.362 ± 0.025 |

| Sequence | PBM E-score of 8-mer |
| --- | --- |
| AATTAGTG | 0.138 ± 0.039 |
| GAATCCCA | -0.069 ± 0.015 |
| TCGTTCAA | -0.192 ± 0.02 |
| AGTATAAC | 0.154 ± 0.0045 |
| CGGAGTCA | -0.0676 ± 0.013 |
| CAGGGCCG | -0.0381 ± 0.044 |
| ATTGCTGC | -0.0375 ± 0.004 |
| CAACCCTC | -0.253 ± 0.045 |
| GGTTAACA | 0.287 ± 0.012 |
| CCCGGCTA | -0.245 ± 0.0018 |
| ACCTTAGA | 0.0853 ± 0.026 |
| AGAAGCTG | -0.0752 ± 0.061 |
| ACAGATTA | 0.0261 ± 0.0076 |
| AGGATGCC | -0.118 ± 0.043 |
| AGTAGAAC | -0.0771 ± 0.051 |
| ATCATAAC | 0.0243 ± 0.004 |
| GGATCTTA | -0.164 ± 0.024 |
| CTAGAAGC | -0.0364 ± 0.056 |
| CCAGTAGA | -0.0451 ± 0.0039 |
| AGCATTCG | -0.0471 ± 0.016 |
| AGAACATC | -0.1083 ± 0.00059 |
| AATGTGCG | 0.3287 ± 0.0028 |
